Assay results as given in patent US20220348651A1, “ENTPD2 ANTIBODIES, COMBINATION THERAPIES, AND METHODS OF USING THE ANTIBODIES AND COMBINATION THERAPIES” (Novartis AG, priority 2019, published 2022).

Molecular target: T1, Human ENTPD1 (Homo sapiens, UniProt P49961)
T1 construct: expressed in transfected cells; host or cells: NIH/3T3 (retroviral transduction, FACS-sorted)
T1 sequence (P49961 1-510): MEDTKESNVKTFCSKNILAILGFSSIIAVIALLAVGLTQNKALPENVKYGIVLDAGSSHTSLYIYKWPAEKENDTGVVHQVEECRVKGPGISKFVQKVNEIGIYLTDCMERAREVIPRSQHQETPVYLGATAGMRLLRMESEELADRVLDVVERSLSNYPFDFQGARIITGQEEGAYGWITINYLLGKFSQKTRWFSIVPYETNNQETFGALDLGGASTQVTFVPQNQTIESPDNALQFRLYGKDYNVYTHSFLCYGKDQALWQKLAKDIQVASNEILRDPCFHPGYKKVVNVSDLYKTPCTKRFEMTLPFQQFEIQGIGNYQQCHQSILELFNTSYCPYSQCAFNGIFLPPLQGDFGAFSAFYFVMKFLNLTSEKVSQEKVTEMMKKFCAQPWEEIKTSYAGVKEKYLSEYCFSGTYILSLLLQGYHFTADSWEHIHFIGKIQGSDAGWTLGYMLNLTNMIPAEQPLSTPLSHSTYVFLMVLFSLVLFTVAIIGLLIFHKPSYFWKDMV
Assay: Cross reactivity: FACS binding to human ENTPD1 expressing NIH/3T3 cells
Conditions: NIH/3T3-ENTPD1 cells, 50 nM antibody
Procedure: FACS screening: Specific binding of candidate antibodies to endogenously expressed ENTPD2 was assessed by flow cytometry. Cells were rinsed thoroughly with 1×PBS and treated with Accutase (Millipore #SCR005) to lift from growth plates and resuspended at approximately 1×10^5 cells/90 μL in 1× FACS buffer (2% FBS+0.1% NaN3 in PBS). In a 96-well U-bottom plate, 10 μL of 10× antibody solution in FACS buffer was pre-seeded and 90 μL of cell suspension was added. Cell were incubated for 30 minutes at 4° C., washed 1× with cold PBS and resuspended in 100 μL of 1:500 secondary antibody 1× FACS buffer (Allophycocyanin conjugated F(ab′)2 goat anti-human IgG, Fcγ specific; Jackson Immunoresearch, Cat#109-136-098). After additional incubation for 15 min at 4° C., cells were washed twice with PBS and resuspended in 100 μL of 1×FACS buffer with 4 μg/mL propidium iodide (Life Technologies, Cat#P3566). Geometric mean fluorescence intensity was calculated on live single cells using FlowJo software.
Cross reactivity Human ENTPD1 (NP_001767) expressing NIH/3T3 cells were generated using a retroviral transduction approach. 72 hrs post transduction, engineered cells were stained with the anti-Human CD39/ENTPD1 APC-conjugated Antibody (R&D systems, Minneapolis, Minn.) and live cells that expressed human ENTPD1 were separated from the rest of the population via fluorescence activated cell sorting. Stable expression of ENTPD1 was periodically re-confirmed by FACS with the above described anti-Human CD39/ENTPD1 APC-conjugated Antibody (1:100).

B1: mAb1: humanized anti-human ENTPD2 human IgG1 from mAb17; heavy chain SEQ ID NO: 12, light chain SEQ ID NO: 23 (antibody)
heavy: EVQLVQSGAEVKKPGESLKISCKASGYTFTDYNMDWVRQMPGKGLEWMGDINPKYDISTYNQQFKGQVTISADKSIRTAYLQWSSLKASDTAMYYCARRGFFLYYGINYYYFDVWGQGTLVTVSSASTKGPSVFPLAPSSKSTSGGTAALGCLVKDYFPEPVTVSWNSGALTSGVHTFPAVLQSSGLYSLSSVVTVPSSSLGTQTYICNVNHKPSNTKVDKRV[here human IgG1 Fc without letters]
light: DIQLTQSPSSLSASVGDRVTITCSASSSVSYIHWFQQKPGKAPKLLIYSTSNLASGVPSRFSGSGSGTFFTLTISSLQPEDFATYFCHQWSSYPWTFGQGTKVEIKRTVAAPSVFIFPPSDEQLKSGTASVVCLLNNFYPREAKVQWKVDNALQSGNSQESVTEQDSKDSTYSLSSTLTLSKADYEKHKVYACEVTHQGLSSPVTKSFNRGEC
  Apparent FACS binding at 50 nM: No binding
